About 2,200 (0.71%) of roughly 310,000 compounds showed an effect of 50% or more. The effect is printed as a negative number. The list shows a part of the results.
Each compound was assayed against human ether-à-go-go-related gene (hERG) potassium channel (human, UniProt Q12809) (assay: primary screen, population patch clamp on CHO cells stably expressing hERG).
human ether-à-go-go-related gene (hERG) potassium channel, sequence (Q12809 whole entry, looked up): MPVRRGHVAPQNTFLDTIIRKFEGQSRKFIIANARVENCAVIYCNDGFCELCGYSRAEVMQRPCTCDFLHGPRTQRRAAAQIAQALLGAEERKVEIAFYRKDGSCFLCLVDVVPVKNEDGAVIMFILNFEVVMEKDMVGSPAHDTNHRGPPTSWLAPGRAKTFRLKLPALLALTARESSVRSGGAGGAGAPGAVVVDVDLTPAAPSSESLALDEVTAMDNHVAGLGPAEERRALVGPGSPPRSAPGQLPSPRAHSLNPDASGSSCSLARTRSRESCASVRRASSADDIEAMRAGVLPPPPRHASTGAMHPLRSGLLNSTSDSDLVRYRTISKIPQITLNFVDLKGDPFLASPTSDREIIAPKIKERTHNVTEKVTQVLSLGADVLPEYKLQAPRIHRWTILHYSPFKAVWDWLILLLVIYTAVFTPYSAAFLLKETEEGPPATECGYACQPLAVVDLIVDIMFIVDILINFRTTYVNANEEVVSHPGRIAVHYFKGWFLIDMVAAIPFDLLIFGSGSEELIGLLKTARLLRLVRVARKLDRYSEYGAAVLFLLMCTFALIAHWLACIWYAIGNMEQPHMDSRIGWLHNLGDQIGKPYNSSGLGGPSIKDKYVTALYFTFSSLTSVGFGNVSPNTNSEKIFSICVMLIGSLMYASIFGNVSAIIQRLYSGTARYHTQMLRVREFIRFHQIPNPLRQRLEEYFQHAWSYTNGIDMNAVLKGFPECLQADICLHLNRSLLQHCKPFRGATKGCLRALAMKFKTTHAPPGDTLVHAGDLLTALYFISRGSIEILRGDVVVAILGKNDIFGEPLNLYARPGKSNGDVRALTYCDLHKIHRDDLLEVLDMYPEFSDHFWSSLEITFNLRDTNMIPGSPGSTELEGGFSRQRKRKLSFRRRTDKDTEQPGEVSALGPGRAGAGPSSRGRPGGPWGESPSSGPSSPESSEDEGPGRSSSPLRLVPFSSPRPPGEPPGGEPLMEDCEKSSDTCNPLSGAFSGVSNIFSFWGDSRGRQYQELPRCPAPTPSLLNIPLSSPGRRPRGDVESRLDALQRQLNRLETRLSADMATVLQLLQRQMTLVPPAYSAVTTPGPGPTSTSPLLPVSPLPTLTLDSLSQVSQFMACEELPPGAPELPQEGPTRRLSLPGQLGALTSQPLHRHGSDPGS

Compound | hERG current change (%, negative = inhibition) at 1uM [%]
O=C1/C(=C/c2cccs2)COc2ccccc21 | 5.15
COC(=O)C1C(=O)CC(C)(O)C(C(=O)OC)C1/C=C/c1ccccc1 (centres unmarked) | 2.96
O=C(NCC1CCCO1)c1c(O)c2cccc3c2n(c1=O)CC3 (centres unmarked) | 0.961
CC(=O)Nc1ccc(NC(=O)/C=C/c2ccc3c(c2)OCO3)cc1 | 13.3
CCCCN(C)C(=O)CCC(=O)Nc1ccc2nc(N3CCOCC3)cc(C)c2c1 | 0.453
Nc1c(NCCN2CCCCC2)c2ccccc2oc1=O | 16.8
CCCN1CCN(C(=O)c2ccc(Sc3ccc(C)cc3)c(NC(C)=O)c2)CC1 | -17.1
CN1CCN(CC(O)COC(c2ccccc2)c2ccccc2)CC1 (centres unmarked) | 6.28
CC(=Nc1ccc2c(c1)nc(CO)n2C)C1=C(O)CC(C)(C)CC1=O | 5.63
COC(=O)c1ccc(-n2c(C)cc(/C=N/Nc3nc(C)cc(=O)[nH]3)c2C)cc1 | 12.1
CC12CN3CC(C)(CN(C1)C3c1ccccc1F)C2 (centres unmarked) | 10.2
O=C(CNc1ccc2ccccc2c1)N/N=C/c1ccc(C(=O)O)cc1 | -2.23
CCC(C)(c1nnnn1-c1c(C)cccc1C)N(N=O)c1cccc(C(F)(F)F)c1 (centres unmarked) | 8.23
Cn1c(SCC(=O)NNC(=O)c2ccccc2O)nnc1-c1ccccc1 | 23.9
O=C(Nc1cccc(OC(=O)N2CCCCC2)c1)N1CCCCC1 | 4.33
CC(=O)NCC(=O)OCc1ccc([N+](=O)[O-])cc1 | 13.5
COc1ccc(Cn2cc(F)c(=O)n(CCC(C)C)c2=O)cc1[N+](=O)[O-] | -0.406
COc1ccc(OCc2cc(C(=O)NCC3CCCCO3)no2)c(Cl)c1 (centres unmarked) | 8.67
CCOC(=O)/C(C#N)=C/c1cn(CCC(=O)O)nc1-c1cccc(Br)c1 | 9.36
CC1(c2ccc(OC(F)F)cc2)NC(=O)N(CC(=O)N2c3ccccc3NC(=O)C2(C)C)C1=O (centres unmarked) | -4.03
COC(=O)c1cc(-c2ccc(Cl)cc2Cl)n[nH]1 | 13.5
CCC(CC)=C(C#N)C(=O)NC1CCCCC1 | -2.89

Compound | hERG current change (%, negative = inhibition) at 1uM [%]
CCOc1ccc(S(=O)(=O)Nc2c(C)n(C)n(-c3ccccc3)c2=O)cc1 | 15.3
COc1ccc(-c2n[nH]c(=S)n2N)c(OC)c1 | 7.65
Cc1cccc(NC(=O)Cn2nnc(C(=O)NCc3ccco3)c2N)c1 | 6.8
N#Cc1c(-c2ccc(F)cc2)cc(-c2cccs2)nc1SCC(=O)O | 16.2
CCN(CC)C(=O)CSc1nc2cc3c(cc2c(=O)n1Cc1ccco1)OCO3 | -6.72
COC(=O)c1ccc2c(=O)n(CCCCCC(=O)N3CCN(c4ccc(F)cc4)CC3)c(=O)[nH]c2c1 | 12.9
CN1CCN(C(=O)c2cc([N+](=O)[O-])ccc2Cl)CC1 | 14.4
Cc1cc(C)c(/C=N/NC(N)=O)c(C)c1/C=N/NC(N)=O | -1.47
COc1ccc2c(c1)OC[C@H]1[C@H]2N2C(=O)CN(CC3CCCO3)C(=O)[C@@]2(C)[C@H]1c1ccccc1 (some centres unmarked) | 13.3
CCOCc1c(C(=O)OCC(=O)Nc2ccc(C)c(S(=O)(=O)N(C)C)c2)oc2ccccc12 | 14.7
CCOc1ncccc1C(=O)N(C)CC(=O)Nc1ccccc1SC | 31.7
OCCNc1nc2ccccc2[nH]1 | 12.9
O=C(O)CNC(=O)C1COc2ccccc2O1 (centres unmarked) | 16
O=[N+]([O-])c1ccc(C[n+]2ccccc2)cc1.[Br-] | -1.48
ClCc1csc(N/N=C/c2cccs2)n1 | 4.58
O=C(COC(=O)c1ccc(F)cc1F)NCCNC(=O)COC(=O)c1ccc(F)cc1F | 14.3
Cc1[nH]n(-c2ccccc2)c(=O)c1C(c1ccc(O)c([N+](=O)[O-])c1)c1c(C)[nH]n(-c2ccccc2)c1=O | 10.3
CCN(c1ccccc1)S(=O)(=O)c1nnc(NC(=O)C(C)C)s1 | 14.1
O=C(O)c1cccc(NC(=O)c2ccccc2NC(=O)c2cccc([N+](=O)[O-])c2)c1 | 19.1
Cc1ccn2cc(-c3ccc(NS(=O)(=O)c4ccccc4)cc3)nc2c1 | 9.5
COc1ccc(NCc2ccc(OC)c(Cn3ccnc3)c2)c(OC)c1 | 6.29
Nc1cc[n+](CC(=O)c2ccc3c(c2)OCCO3)cc1.[Br-] | 4.12
